Reference: the supplement of paper PMC9446081
In all, about 39,000 compounds went through this assay and about 220 (0.56%) showed activity. Some of the results follow.

System: Escherichia coli K-12 BW25113
Test: relative growth (OD600 normalised to plate interquartile mean) (fraction); higher = less growth inhibition, active = 0.2 or less
Conditions: 50 µM; LB; incubation time: overnight (16-24 h)
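Note: static incubation at 37 °C against the wild-type strain, values averaged over two biological replicates.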

SMILES	relative growth
C[C@H](CO)N1C[C@H](C)[C@@H](CN(C)Cc2ccc3c(c2)OCO3)Oc2ccc(NC(=O)Nc3cccc4ccccc34)cc2C1=O	inactive: 1.03
COc1ccc(cc1)S(=O)(=O)N1C[C@]2(C1)CN([C@H](CO)c1c2c2ccc(cc2n1C)OC)C(=O)CN(C)C	inactive: 0.987
C[C@@H]1CCCCO[C@H](CN(C)CC2CC2)[C@H](C)CN([C@@H](C)CO)C(=O)c2cc(NC(=O)CCC(F)(F)F)ccc2O1	inactive: 1.02
C[C@@H]1CN([C@@H](C)CO)C(=O)c2cc(NS(=O)(=O)c3ccc(F)cc3)ccc2O[C@@H](C)CCCCO[C@@H]1CN(C)C(=O)Nc1ccc(C(F)(F)F)cc1	inactive: 0.983
COCC(=O)N(C)C[C@H]1Oc2cc(C#C[C@H](C)O)ccc2S(=O)(=O)N([C@H](C)CO)C[C@@H]1C	inactive: 0.988
C[C@@H]1CN([C@@H](C)CO)C(=O)c2c(c3ccccc3n2C)-c2ccccc2CO[C@H]1CN(C)C(=O)Nc1ccccc1	inactive: 1.03
C[C@H](CO)N1C[C@H](C)[C@@H](CN(C)CC2CC2)Oc2c(NS(=O)(=O)c3ccc(F)cc3)cccc2C1=O	inactive: 0.984
C[C@@H]1CCCCO[C@H](CN(C)CC2CC2)[C@H](C)CN([C@@H](C)CO)C(=O)c2cc(NS(=O)(=O)c3ccc(Cl)cc3)ccc2O1	inactive: 0.963
CO[C@@H]1CN(C)C(=O)c2ccc(NS(C)(=O)=O)cc2OC[C@H](C)N(C(=O)C2CCCCC2)C[C@@H]1C	inactive: 1.02
COc1ccc(S(=O)(=O)N(C)C[C@@H]2OCCCC[C@@H](C)Oc3ccc(NC(=O)NC4CCCCC4)cc3C(=O)N([C@H](C)CO)C[C@H]2C)cc1	inactive: 1.04
COc1ccc(S(=O)(=O)Nc2ccc3c(c2)C(=O)N([C@H](C)CO)C[C@@H](C)[C@H](CN(C)C(=O)Nc2ccc4c(c2)OCO4)OCCCC[C@H](C)O3)cc1	inactive: 1.01
CC(C)CCCC(C)C1CCC2C3CCC4CC(O)CCC4(C)C3CCC12C (stereo not drawn) [5alpha-CHOLESTANOL]	inactive: 1.06
C[C@@H](OC[C@@]1(c2ccccc2)CC[C@]2(CCC(=O)N2)CN1)c1cc(C(F)(F)F)cc(C(F)(F)F)c1	inactive: 0.998
CN(C)C(=O)C[C@H]1CC[C@@H]2[C@@H](COc3ccc(NS(=O)(=O)c4cccc(F)c4)cc3C(=O)N2C)O1	inactive: 0.946
CC(C)NC(=O)Nc1ccc2c(c1)CC(=O)N([C@@H](C)CO)C[C@H](C)[C@@H](CN(C)C(=O)Nc1ccc3c(c1)OCO3)O2	inactive: 0.979
O=S(=O)(NCC[C@H]1CC[C@@H](NS(=O)(=O)c2ccccc2Cl)[C@@H](CO)O1)c1ccc(Cl)cc1	inactive: 1.02
CO[C@@H]1CN(C)C(=O)c2ccc(NC(=O)Nc3cccc(Cl)c3)cc2OC[C@@H](C)N(C(=O)Nc2c(C)noc2C)C[C@H]1C	inactive: 0.998
COc1ccc(NC(=O)N(C)C[C@H]2OCCCC[C@@H](C)Oc3ccc(NC(=O)C4CCCCC4)cc3C(=O)N([C@H](C)CO)C[C@@H]2C)cc1	inactive: 0.986

SMILES	relative growth
COc1ccc(S(=O)(=O)N(C)C[C@H]2OCCCC[C@@H](C)Oc3ccc(NC(=O)CCC(F)(F)F)cc3C(=O)N([C@@H](C)CO)C[C@H]2C)cc1	inactive: 1.01
C[C@@H]1CCCCO[C@@H](CN(C)S(=O)(=O)c2ccc(Cl)cc2)[C@H](C)CN([C@@H](C)CO)C(=O)c2cc(NC(=O)Nc3ccc4c(c3)OCO4)ccc2O1	inactive: 1.02
O=S(=O)(NCC[C@@H]1CC[C@@H](NS(=O)(=O)c2ccccc2Cl)[C@H](CO)O1)c1ccc(F)cc1	inactive: 1.01
C[C@@H]1CCCCO[C@@H](CN(C)C(=O)Cc2ccccc2)[C@H](C)CN([C@@H](C)CO)C(=O)c2cc(NC(=O)C3CCCCC3)ccc2O1	inactive: 1
COc1ccc(S(=O)(=O)Nc2ccc3c(c2)C(=O)N([C@@H](C)CO)C[C@@H](C)[C@H](CN(C)C(=O)Nc2ccc4c(c2)OCO4)OCCCC[C@@H](C)O3)cc1	inactive: 0.982
C[C@@H]1CN([C@@H](C)CO)C(=O)c2cc(NC(=O)Nc3ccccc3)ccc2O[C@@H](C)CCCCO[C@H]1CN(C)S(=O)(=O)c1ccccc1	inactive: 1.01
CC(C)CC#Cc1ccc2c(c1)O[C@@H](CN(C)C(=O)Cc1ccccn1)[C@H](C)CN([C@H](C)CO)S2(=O)=O	inactive: 0.955
O=C1CCCCCN1	inactive: 0.964
C[C@@H]1CN([C@H](C)CO)C(=O)c2cc(NC(=O)c3ccncc3)ccc2O[C@@H](C)CCCCO[C@H]1CN(C)S(=O)(=O)c1ccc(Cl)cc1	inactive: 1.01
COc1ccc(CNC(=O)C[C@H]2C[C@H]3c4cc(NS(=O)(=O)c5ccc(F)cc5)ccc4O[C@H]3[C@H](CO)O2)cc1	inactive: 1.01
C[C@@H]1CN([C@H](C)CO)C(=O)Cc2cc(NS(C)(=O)=O)ccc2O[C@@H]1CN(C)C(=O)NC1CCCCC1	inactive: 1.01
C[C@H]1CN([C@@H](C)CO)C(=O)c2cc(NC(=O)Cn3cnnn3)ccc2O[C@@H]1CN(C)Cc1ccc(C(=O)Nc2ccccc2N)cc1	inactive: 1.01
COc1ccccc1S(=O)(=O)N(C)C[C@H]1Oc2ncc(Br)cc2C(=O)N([C@H](C)CO)C[C@H]1C	inactive: 0.975
C[C@@H]1CN([C@@H](C)CO)C(=O)Cc2cc(NC(=O)NC3CCCCC3)ccc2O[C@H]1CN(C)C(=O)Nc1cccc2ccccc12	inactive: 1.01
C[C@@H]1CN([C@H](C)CO)C(=O)c2cc(N(C)C)ccc2O[C@@H](C)CCCCO[C@H]1CN(C)C(=O)Nc1cccc2ccccc12	inactive: 1.03
O=c1cc(-c2ccccc2)sc2c1ccc1ccccc12	inactive: 1.05
CN1CCN(C(=O)C[C@@H]2C[C@H]3c4cc(NC(=O)c5ccc6c(c5)OCO6)ccc4O[C@H]3[C@H](CO)O2)CC1	inactive: 1.01
CC=Cc1ccc2n(c1=O)C[C@H]1[C@H](CO)[C@@H](C(=O)NCCC)[C@@H]2N1S(=O)(=O)c1cn(C)cn1	inactive: 1.01
